Measured values taken from paper PMC5636987.
No constants are given. Whether binding was seen depends on the method and setting. Binding seen in cells or lysates may run through a third protein. Some results given as binding are weak or reduced against the parent protein; the word gives no strength. Where a sequence is shown, tags or fusion partners need not be part of it.

B1: GST-POPX2 (enzyme, UniProt P49593 1-454)
chain: MSSGAPQKSSPMASGAEETPGFLDTLLQDFPALLNPEDPLPWKAPGTVLSQEEVEGELAELAMGFLGSRKAPPPLAAALAHEAVSQLLQTDLSEFRKLPREEEEEEEDDDEEEKAPVTLLDAQSLAQSFFNRLWEVAGQWQKQVPLAARASQRQWLVSIHAIRNTRRKMEDRHVSLPSFNQLFGLSDPVNRAYFAVFDGHGGVDAARYAAVHVHTNAARQPELPTDPEGALREAFRRTDQMFLRKAKRERLQSGTTGVCALIAGATLHVAWLGDSQVILVQQGQVVKLMEPHRPERQDEKARIEALGGFVSHMDCWRVNGTLAVSRAIGDVFQKPYVSGEADAASRALTGSEDYLLLACDGFFDVVPHQEVVGLVQSHLTRQQGSGLRVAEELVAAARERGSHDNITVMVVFLRDPQELLEGGNQGEGDPQAEGRRQDLPSSLPEPETQAPPRS
B2: His-POPX2 (enzyme, UniProt P49593 1-454)
chain: B1 chain

Key:
[1] = target: T1, Flag-TAK1 (human (from the RefSeq entry)) (UniProt O43318); assay: co-IP; Flag-TAK1 or TAB1 immunoprecipitates probed for GST-POPX2 (Supplementary Figure S1b)
T1 sequence: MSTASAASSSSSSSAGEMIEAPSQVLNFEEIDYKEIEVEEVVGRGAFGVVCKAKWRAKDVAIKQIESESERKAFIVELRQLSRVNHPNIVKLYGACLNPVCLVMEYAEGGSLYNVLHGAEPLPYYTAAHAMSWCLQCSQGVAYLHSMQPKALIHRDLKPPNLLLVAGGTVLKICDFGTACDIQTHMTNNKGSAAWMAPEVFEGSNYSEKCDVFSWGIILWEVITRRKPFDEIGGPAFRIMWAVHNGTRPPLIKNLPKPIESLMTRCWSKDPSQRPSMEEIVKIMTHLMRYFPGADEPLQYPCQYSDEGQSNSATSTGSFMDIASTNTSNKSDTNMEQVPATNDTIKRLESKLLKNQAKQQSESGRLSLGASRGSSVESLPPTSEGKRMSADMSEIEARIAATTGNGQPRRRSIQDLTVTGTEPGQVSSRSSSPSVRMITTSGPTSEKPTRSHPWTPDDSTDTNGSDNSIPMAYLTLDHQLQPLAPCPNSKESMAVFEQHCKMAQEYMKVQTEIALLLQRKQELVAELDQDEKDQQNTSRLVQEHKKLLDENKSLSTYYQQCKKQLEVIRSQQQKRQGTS

[2] = target: T2, Flag-TAB1 (human (from the RefSeq entry)) (UniProt Q15750); assay: as above
T2 sequence: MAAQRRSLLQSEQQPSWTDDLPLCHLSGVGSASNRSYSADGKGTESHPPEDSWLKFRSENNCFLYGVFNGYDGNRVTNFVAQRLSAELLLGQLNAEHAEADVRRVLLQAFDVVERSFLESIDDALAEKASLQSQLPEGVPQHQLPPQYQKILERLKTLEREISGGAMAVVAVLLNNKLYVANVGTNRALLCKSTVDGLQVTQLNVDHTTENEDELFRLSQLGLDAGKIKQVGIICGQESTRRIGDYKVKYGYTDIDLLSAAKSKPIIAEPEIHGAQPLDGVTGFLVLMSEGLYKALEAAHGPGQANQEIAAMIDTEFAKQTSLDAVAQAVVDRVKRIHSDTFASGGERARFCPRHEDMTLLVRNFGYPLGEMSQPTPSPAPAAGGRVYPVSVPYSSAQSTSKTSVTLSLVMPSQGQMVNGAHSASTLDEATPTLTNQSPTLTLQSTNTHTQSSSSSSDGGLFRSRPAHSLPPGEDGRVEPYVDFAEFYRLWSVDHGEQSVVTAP

[3] = target: T3, GST-TAK1 (bacterially expressed) (human (from the RefSeq entry)) (UniProt O43318); assay: pull-down; bacterially expressed His-POPX2 or His-POPX2m incubated with GST fusion proteins bound to glutathione beads; stringent wash (three times) with 25 mM Tris pH 7.4, 300 mM NaCl, 1% Triton X-100, 1 mM EDTA; Western blot; purification of the His proteins not told
T3 sequence: T1 sequence

[4] = target: T4, GST-TAB1 (bacterially expressed) (human (from the RefSeq entry)) (UniProt Q15750); assay: as above
T4 sequence: T2 sequence

Binder | binding [1] | binding [2] | binding [3] | binding [4]
B1 | binds | no binding | – | –
B2 | – | – | binds | no binding
